# Data: PubChem BioAssay (NCATS)
# Several values for one entry are separate records, joined by “and”; a condition that tells them apart may be missing. Equal entries are not always repeated. The shares of active, inactive and inconclusive entries below differ from those in the screen. A potency beside an inconclusive call is a rough fit, not a confirmed value. Some structures have more than one record in an assay (separate samples or runs), and their calls can disagree. Activity calls are given as the source filed them. The call rests on the fitted dose curve; in most records, active means well fitted curve in the direction sought with a large enough effect; inconclusive means small, poorly fitted or top-dose-only effect, or another doubt; inactive means no such curve, though single readings can be large; an effect the other way counts as inactive or inconclusive.
# Biological target: Cellular tumor antigen p53 (Homo sapiens) (UniProt P04637)
# Sequence of UniProt P04637 (P04637 whole entry, looked up): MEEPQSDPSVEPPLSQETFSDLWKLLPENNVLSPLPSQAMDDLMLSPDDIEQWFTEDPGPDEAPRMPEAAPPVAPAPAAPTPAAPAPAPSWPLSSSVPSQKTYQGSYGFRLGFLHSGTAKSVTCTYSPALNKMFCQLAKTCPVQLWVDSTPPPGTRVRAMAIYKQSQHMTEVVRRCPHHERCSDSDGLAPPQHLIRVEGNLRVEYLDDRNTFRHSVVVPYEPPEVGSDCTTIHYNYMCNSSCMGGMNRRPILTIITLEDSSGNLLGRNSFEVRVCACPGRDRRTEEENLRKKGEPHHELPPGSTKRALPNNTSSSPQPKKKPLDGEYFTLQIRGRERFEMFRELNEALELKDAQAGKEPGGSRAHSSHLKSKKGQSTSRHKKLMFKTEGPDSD
# Test: Primary qHTS for small molecule compounds that upregulate eGFP-tagged delta133p53alpha (in N-terminal) cells. (AID 2060322);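 further: cells pre-induced with doxycycline then dosed without doxycycline; nearly all actives have a fitted effect of over 75% in size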
# Conditions: NCI-H358 eGFP-delta133p53alpha fluorescence, 24 h; activation: stronger effect = higher value
# Summary of the method: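 NCI-H358 cells pre-induced 24 h with 10 ng/ml doxycycline for eGFP-delta133p53alpha, plated dox-free and exposed 24 h at 37C to titrated compounds. Fixed, Hoechst-stained; gated GFP peak intensity by laser scanning cytometry, normalized to DMSO (0%) and 57.5 uM 5-azacytidine (100%).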
# Potency means the concentration at half of the fitted maximal effect; tags describe the fitted curve by direction and shape.
row,SMILES,Potency
1,COc1ccc(F)c(F)c1C(=O)c1cnc(NC2CCN(S(C)(=O)=O)CC2)nc1N,active: 2.73 µM and active: 2.69 µM
2,O=C(Nc1ccc2[nH]nc(-c3ccncc3)c2c1)[C@@H]1CCN(CC(=O)N2CCN(c3ccc(-c4ncccn4)cc3)CC2)C1,"inconclusive: 1.2 µM [activator, partial curve, poor fit]"
3,COc1ccc(-c2ccc3ncc4c(c3c2)n(-c2ccc(N3CCNCC3)c(C(F)(F)F)c2)c(=O)n4C)cn1,"inconclusive: 2.17 µM [activator, full curve, poor fit] and inconclusive: 33.8 µM [activator, single point]"
4,CC(C)CC(=O)Nc1n[nH]c2c1CN(C(=O)C1CCN(C)CC1)C2(C)C,active: 6.11 µM and active: 4.78 µM
5,NCC1CCN(c2nccc(-c3ccc4ccccc4c3)n2)CC1,active: 23.9 µM
6,Cn1cc(C2=C(c3c4n(c5ccccc35)CCC(CN)C4)C(=O)NC2=O)c2ccccc21 (stereo not given),active: 27.3 µM
7,NC(=O)c1cnc(N[C@@H]2CCCC[C@@H]2N)nc1Nc1cccc(-n2nccn2)c1,active: 34.3 µM
8,CCOC(=O)CCNc1cc(N2CCc3ccccc3CC2)nc(-c2ccccn2)n1,"inconclusive: 21.7 µM [activator, partial curve, poor fit]"
9,CN1c2ccccc2C(=O)N2CCc3c([nH]c4ccccc34)C21 (stereo not given),active: 2.69 µM
10,Cc1ccc(C(N)=O)cc1Nc1nccc(-c2cn(C(C)C)c3cnccc23)n1,active: 10.9 µM
11,O=c1[nH]c(=O)n([C@H]2C[C@H](O)[C@@H](CO)O2)cc1F,"inconclusive: 38.9 µM [activator, single point]"
12,COc1ccc(-c2cc3c(C)nc(N)nc3n(C3CCC(OCCO)CC3)c2=O)cn1 (stereo not given),"inconclusive: 37.9 µM [activator, single point]"
13,Oc1ccc(-c2ccc(-c3cc(Nc4cccc(CNC5CC5)c4)n[nH]3)cc2)c(O)c1,active: 43.2 µM

# Biological target: Cellular tumor antigen p53 (Homo sapiens) (UniProt P04637)
# Test: Primary qHTS for small molecule compounds that upregulate eGFP-tagged delta133p53alpha (in C-terminal) cells. (AID 2060324);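 on GFP increase (activation): 0% = DMSO wells and 100% = 57.5 µM 5-azacytidine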
# Conditions: NCI-H358 delta133p53alpha-eGFP (C-terminal tag), GFP fluorescence imaging, 24 h; series mostly up to 57.5 µM; GFP increase (activation): at the top concentration
# Summary of the method: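 Concentration-response screen: compounds titrated onto pre-induced NCI-H358 D133p53a-eGFP cells, incubated one day, fixed with 3.5% PFA. Per-cell GFP peak intensity was gated, then normalized against intraplate controls.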
SMILES,GFP increase (activation),Potency
O=C(CCNNC(=O)c1ccncc1)NCc1ccccc1,inactive: -0.742%,–
CCSC(=N)N,inactive: -3.01%,–
O=C1NC(=O)c2c1c(-c1ccccc1)cc1[nH]c3ccc(O)cc3c21,–,active: 26.9 µM
Cn1c(=O)c(-c2c(Cl)cccc2Cl)cc2cnc(Nc3ccc(N4CCOCC4)cc3)nc21,–,"inconclusive: 1.51 µM [activator, full curve]"
Fc1ccc([C@@H]2CCNC[C@H]2COc2ccc3c(c2)OCO3)cc1,–,"inconclusive: 37.9 µM [activator, single point]"
NCCNS(=O)(=O)c1cccc2c(Cl)cccc12,inactive: 17.7%,–
COc1ccc(/C=C2\COc3ccc(C)cc3C2=O)cc1O,–,active: 13.5 µM
C=C(C)C1CC=C(C(=O)O)CC1 (stereo not given),inactive: -14.8%,–
Nc1nc(N)c2nc(-c3ccccc3)c(N)nc2n1,inactive: 8.97%,–
CS(=O)(=O)c1ccc(-n2nc(C(F)(F)F)cc2-c2ccc(F)cc2)cc1,inactive: 0.17%,–
O=C(O)C1=CCNCC1,inactive: 1.11%,–
COc1cc2nc(N3CCN(C(=O)c4ccco4)CC3)nc(N)c2cc1OC,–,"inconclusive: 33.8 µM [activator, single point]"
CNCCC=C1c2ccccc2CCc2ccccc21,–,"inconclusive: 42.6 µM [activator, partial curve, poor fit]"
CC[C@H]1OC(=O)[C@H](C)[C@@H](O[C@H]2C[C@@](C)(OC)[C@@H](O)[C@H](C)O2)[C@H](C)[C@@H](O[C@@H]2O[C@H](C)C[C@H](NC)[C@H]2O)[C@](C)(O)C[C@@H](C)CN(C)[C@H](C)[C@@H](O)[C@]1(C)O,–,"inconclusive: 37.9 µM [activator, single point]"
CC(C)(C)c1ccc(C(O)CCCN2CCC(C(O)(c3ccccc3)c3ccccc3)CC2)cc1 (stereo not given),–,"inconclusive: 30.1 µM [activator, single point]"
Brc1c(Br)c(Br)c2[nH]cnc2c1Br,–,"inconclusive: 37.9 µM [activator, single point]"
CC[C@@H]1Cc2cc(O)ccc2C2=C1c1ccc(O)cc1C[C@H]2CC,–,"inconclusive: 26.9 µM [activator, partial curve, poor fit]"
c1ccc2c(c1)CCC[C@H]2Nc1nc2ccccc2[nH]1,–,"inconclusive: 30.1 µM [activator, partial curve, poor fit]"
Nc1ncnc2n[nH]c(Nc3ccc(F)cc3)c12,–,"inconclusive: 21.3 µM [activator, partial curve, poor fit]"
NCCCCCCCCCCN,–,"inconclusive: 26.9 µM [activator, single point]"
C[C@]12C=CC(=O)C=C1CC[C@@H]1C2=CC[C@]2(C)[C@@H](C(=O)CN3CCN(c4cc(N5CCCC5)nc(N5CCCC5)n4)CC3)CC[C@@H]12,–,"inconclusive: 37.9 µM [activator, single point]"
COC(=O)C1=C(C)NC(C)=C(C(=O)OC)C1c1cccc(NC(=O)NCCCN2CCC(c3cccc(OC)c3)CC2)c1,–,"inconclusive: 26.9 µM [activator, single point]"
NS(=O)(=O)C#Cc1ccccc1,–,active: 30.1 µM
CCNC(=O)N1CCN(CCCC(c2ccc(F)cc2)c2ccc(F)cc2)CC1,inactive: 4.32%,–
CCCn1c(=O)c2[nH]c(C3CCCC3)nc2n(CCC)c1=O,inactive: -1.68%,–
O=C1NCN(c2ccccc2)C12CCN(CCCC(c1ccc(F)cc1)c1ccc(F)cc1)CC2,–,"inconclusive: 30.1 µM [activator, single point]"
OC1(c2ccc(Cl)cc2)CCN(Cc2c[nH]c3ccccc23)CC1,inactive: -0.172%,–
